Data published in the supplement of paper PMC8728848.
This is one part of the list.

Key:
Experiment in all cases: glycan array binding signal (z-score within array); higher = stronger binding
Details in all cases: glycan notation: IUPAC condensed, linker removed
[1] = biological target: Fuc(a1-2)Gal6S(b1-3)GlcNAc6S
How it was run: (§1)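 Glycan array data came from 3228 arrays in the Consortium for Functional Glycomics database, and only arrays with an available protein sequence were kept. Glycan names were put into IUPAC-condensed notation, and columns mapping to the same glycan were averaged. The binding signal is a within-array Z-score, averaged across arrays of one protein sequence run at different concentrations or buffers and across linkers. A negative Z-score can be read as non-binding.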

Fuc(a1-2)Gal6S(b1-4)Glc = biological target: Fuc(a1-2)Gal6S(b1-4)Glc
How it was run: as §1

[2] = biological target: Fuc(a1-2)Gal6S(b1-4)Glc6S
How it was run: as §1

Fuc(a1-2)[Gal(a1-3)]Gal = biological target: Fuc(a1-2)[Gal(a1-3)]Gal
How it was run: as §1

[3] = biological target: Fuc(a1-2)[Gal(a1-3)]Gal(b1-3)GalNAc
How it was run: as §1

[4] = biological target: Fuc(a1-2)[Gal(a1-3)]Gal(b1-3)GalNAc(b1-3)Gal(a1-4)Gal(b1-4)Glc
How it was run: as §1

[5] = biological target: Fuc(a1-2)[Gal(a1-3)]Gal(b1-3)GlcNAc
How it was run: as §1

[6] = biological target: Fuc(a1-2)[Gal(a1-3)]Gal(b1-3)GlcNAc(b1-2)Man(a1-3)[Fuc(a1-2)[Gal(a1-3)]Gal(b1-3)GlcNAc(b1-2)Man(a1-6)]Man(b1-4)GlcNAc(b1-4)GlcNAc
How it was run: as §1

[7] = biological target: Fuc(a1-2)[Gal(a1-3)]Gal(b1-3)GlcNAc(b1-2)Man(a1-3)[Fuc(a1-2)[Gal(a1-3)]Gal(b1-3)GlcNAc(b1-2)Man(a1-6)]Man(b1-4)GlcNAc(b1-4)[Fuc(a1-6)]GlcNAc
How it was run: as §1

[8] = biological target: Fuc(a1-2)[Gal(a1-3)]Gal(b1-3)GlcNAc(b1-3)GalNAc
How it was run: as §1

[9] = biological target: Fuc(a1-2)[Gal(a1-3)]Gal(b1-3)GlcNAc(b1-6)GalNAc
How it was run: as §1

[10] = biological target: Fuc(a1-2)[Gal(a1-3)]Gal(b1-4)Glc
How it was run: as §1

[11] = biological target: Fuc(a1-2)[Gal(a1-3)]Gal(b1-4)GlcNAc
How it was run: as §1

[12] = biological target: Fuc(a1-2)[Gal(a1-3)]Gal(b1-4)GlcNAc(b1-2)Man
How it was run: as §1

[13] = biological target: Fuc(a1-2)[Gal(a1-3)]Gal(b1-4)GlcNAc(b1-2)Man(a1-3)[Fuc(a1-2)[Gal(a1-3)]Gal(b1-4)GlcNAc(b1-2)Man(a1-6)]Man(b1-4)GlcNAc(b1-4)GlcNAc
How it was run: as §1

[14] = biological target: Fuc(a1-2)[Gal(a1-3)]Gal(b1-4)GlcNAc(b1-2)Man(a1-3)[Fuc(a1-2)[Gal(a1-3)]Gal(b1-4)GlcNAc(b1-2)Man(a1-6)]Man(b1-4)GlcNAc(b1-4)[Fuc(a1-6)]GlcNAc
How it was run: as §1

[15] = biological target: Fuc(a1-2)[Gal(a1-3)]Gal(b1-4)GlcNAc(b1-3)GalNAc
How it was run: as §1

[16] = biological target: Fuc(a1-2)[Gal(a1-3)]Gal(b1-4)GlcNAc(b1-3)[Fuc(a1-2)[Gal(a1-3)]Gal(b1-4)GlcNAc(b1-6)]GalNAc
How it was run: as §1

[17] = biological target: Fuc(a1-2)[Gal(a1-3)]Gal(b1-4)GlcNAc(b1-6)GalNAc
How it was run: as §1

[18] = biological target: Fuc(a1-2)[Gal(a1-3)]Gal(b1-4)[Fuc(a1-3)]Glc
How it was run: as §1

[19] = biological target: Fuc(a1-2)[Gal(a1-3)]Gal(b1-4)[Fuc(a1-3)]GlcNAc
How it was run: as §1

[20] = biological target: Fuc(a1-2)[Gal(a1-3)]Gal(b1-4)[Fuc(a1-3)]GlcNAc(b1-3)GalNAc
How it was run: as §1

[21] = biological target: Fuc(a1-2)[Gal(a1-4)]Gal(b1-4)GlcNAc
How it was run: as §1

[22] = biological target: Fuc(a1-2)[GalNAc(a1-3)]Gal
How it was run: as §1

[23] = biological target: Fuc(a1-2)[GalNAc(a1-3)]Gal(b1-3)GalNAc(a1-3)[Fuc(a1-2)]Gal(b1-4)GlcNAc
How it was run: as §1

[24] = biological target: Fuc(a1-2)[GalNAc(a1-3)]Gal(b1-3)GalNAc(b1-3)Gal(a1-4)Gal(b1-4)Glc
How it was run: as §1

[25] = biological target: Fuc(a1-2)[GalNAc(a1-3)]Gal(b1-3)GlcNAc
How it was run: as §1

[26] = biological target: Fuc(a1-2)[GalNAc(a1-3)]Gal(b1-3)GlcNAc(b1-2)Man(a1-3)[Fuc(a1-2)[GalNAc(a1-3)]Gal(b1-3)GlcNAc(b1-2)Man(a1-6)]Man(b1-4)GlcNAc(b1-4)GlcNAc
How it was run: as §1

[27] = biological target: Fuc(a1-2)[GalNAc(a1-3)]Gal(b1-3)GlcNAc(b1-2)Man(a1-3)[Fuc(a1-2)[GalNAc(a1-3)]Gal(b1-3)GlcNAc(b1-2)Man(a1-6)]Man(b1-4)GlcNAc(b1-4)[Fuc(a1-6)]GlcNAc
How it was run: as §1

[28] = biological target: Fuc(a1-2)[GalNAc(a1-3)]Gal(b1-3)GlcNAc(b1-3)GalNAc
How it was run: as §1

[29] = biological target: Fuc(a1-2)[GalNAc(a1-3)]Gal(b1-3)GlcNAc(b1-6)GalNAc
How it was run: as §1

[30] = biological target: Fuc(a1-2)[GalNAc(a1-3)]Gal(b1-4)Glc
How it was run: as §1

[31] = biological target: Fuc(a1-2)[GalNAc(a1-3)]Gal(b1-4)GlcNAc
How it was run: as §1

[32] = biological target: Fuc(a1-2)[GalNAc(a1-3)]Gal(b1-4)GlcNAc(b1-2)Man
How it was run: as §1

[33] = biological target: Fuc(a1-2)[GalNAc(a1-3)]Gal(b1-4)GlcNAc(b1-2)Man(a1-3)[Fuc(a1-2)[GalNAc(a1-3)]Gal(b1-4)GlcNAc(b1-2)Man(a1-6)]Man(b1-4)GlcNAc(b1-4)GlcNAc
How it was run: as §1

[34] = biological target: Fuc(a1-2)[GalNAc(a1-3)]Gal(b1-4)GlcNAc(b1-2)Man(a1-3)[Fuc(a1-2)[GalNAc(a1-3)]Gal(b1-4)GlcNAc(b1-2)Man(a1-6)]Man(b1-4)GlcNAc(b1-4)[Fuc(a1-6)]GlcNAc
How it was run: as §1

[35] = biological target: Fuc(a1-2)[GalNAc(a1-3)]Gal(b1-4)GlcNAc(b1-3)Gal(b1-4)GlcNAc
How it was run: as §1

[36] = biological target: Fuc(a1-2)[GalNAc(a1-3)]Gal(b1-4)GlcNAc(b1-3)Gal(b1-4)GlcNAc(b1-3)Gal(b1-4)GlcNAc
How it was run: as §1

[37] = biological target: Fuc(a1-2)[GalNAc(a1-3)]Gal(b1-4)GlcNAc(b1-3)GalNAc
How it was run: as §1

[38] = biological target: Fuc(a1-2)[GalNAc(a1-3)]Gal(b1-4)GlcNAc(b1-3)[Fuc(a1-2)[GalNAc(a1-3)]Gal(b1-4)GlcNAc(b1-6)]GalNAc
How it was run: as §1

[39] = biological target: Fuc(a1-2)[GalNAc(a1-3)]Gal(b1-4)GlcNAc(b1-6)GalNAc
How it was run: as §1

[40] = biological target: Fuc(a1-2)[GalNAc(a1-3)]Gal(b1-4)[Fuc(a1-3)]GlcNAc
How it was run: as §1

[41] = biological target: Fuc(a1-2)[GalNAc(a1-3)]Gal(b1-4)[Fuc(a1-3)]GlcNAc(b1-3)GalNAc
How it was run: as §1

[42] = biological target: Fuc(a1-2)[GalNAc(a1-4)]Gal(b1-4)GlcNAc
How it was run: as §1

[43] = biological target: Fuc(a1-2)[GalNAc(b1-3)]Gal
How it was run: as §1

B1: GNL (Galanthus nivalis) (protein)
chain: MGHHHHHHHHYGTLENGHWLMVGMSIFSKDRTVELRMQDDGKLAIYYNDHCAWQSTAQQVNNAKGAVMQGDGNFCIYDKNGKATWHTNTAAPSGDSHTFVSVQDDGNLVLYKNNGATPIWSSKSNK
With B1 as the binder, how does the “glycan array binding signal (z-score)” value [1] read?
Its value is -0.071.

And the “glycan array binding signal (z-score)” value (Fuc(a1-2)Gal6S(b1-4)Glc)?
The value was -0.191.

And the “glycan array binding signal (z-score)” value [2]?
Its value is -0.251.

What about the “glycan array binding signal (z-score)” value (Fuc(a1-2)[Gal(a1-3)]Gal) of the same binder?
Its value is -0.222.

And the “glycan array binding signal (z-score)” value [3]?
Its value is -0.187.

And the “glycan array binding signal (z-score)” value [4]?
The value was -0.172.

What about the “glycan array binding signal (z-score)” value [5] of the same binder?
Its value is -0.296.

And the “glycan array binding signal (z-score)” value [6]?
The value was 1.83.

What about the “glycan array binding signal (z-score)” value [7] of the same binder?
The value was -0.17.

What about the “glycan array binding signal (z-score)” value [8] of the same binder?
Its value is -0.304.

What about the “glycan array binding signal (z-score)” value [9] of the same binder?
The value was -0.174.

And the “glycan array binding signal (z-score)” value [10]?
Its value is -0.222.

What about the “glycan array binding signal (z-score)” value [11] of the same binder?
Its value is -0.187.

What about the “glycan array binding signal (z-score)” value [12] of the same binder?
The value was -0.241.

What about the “glycan array binding signal (z-score)” value [13] of the same binder?
Its value is -0.068.

What about the “glycan array binding signal (z-score)” value [14] of the same binder?
Its value is -0.188.

And the “glycan array binding signal (z-score)” value [15]?
The value was -0.156.

And the “glycan array binding signal (z-score)” value [16]?
Its value is -0.174.

And the “glycan array binding signal (z-score)” value [17]?
The value was -0.187.

What about the “glycan array binding signal (z-score)” value [18] of the same binder?
The value was -0.26.

And the “glycan array binding signal (z-score)” value [19]?
The value was -0.264.

And the “glycan array binding signal (z-score)” value [20]?
Its value is -0.209.

And the “glycan array binding signal (z-score)” value [21]?
Its value is -0.238.

What about the “glycan array binding signal (z-score)” value [22] of the same binder?
The value was -0.232.

What about the “glycan array binding signal (z-score)” value [23] of the same binder?
Its value is -0.284.

What about the “glycan array binding signal (z-score)” value [24] of the same binder?
Its value is -0.228.

And the “glycan array binding signal (z-score)” value [25]?
The value was -0.249.

And the “glycan array binding signal (z-score)” value [26]?
Its value is 0.948.

What about the “glycan array binding signal (z-score)” value [27] of the same binder?
Its value is 0.142.

And the “glycan array binding signal (z-score)” value [28]?
Its value is -0.218.

And the “glycan array binding signal (z-score)” value [29]?
The value was -0.294.

And the “glycan array binding signal (z-score)” value [30]?
Its value is -0.198.

What about the “glycan array binding signal (z-score)” value [31] of the same binder?
The value was -0.211.

What about the “glycan array binding signal (z-score)” value [32] of the same binder?
Its value is -0.244.

What about the “glycan array binding signal (z-score)” value [33] of the same binder?
Its value is -0.066.

And the “glycan array binding signal (z-score)” value [34]?
Its value is -0.207.

And the “glycan array binding signal (z-score)” value [35]?
The value was -0.247.

And the “glycan array binding signal (z-score)” value [36]?
Its value is -0.209.

What about the “glycan array binding signal (z-score)” value [37] of the same binder?
Its value is -0.142.

What about the “glycan array binding signal (z-score)” value [38] of the same binder?
The value was -0.262.

What about the “glycan array binding signal (z-score)” value [39] of the same binder?
Its value is -0.302.

What about the “glycan array binding signal (z-score)” value [40] of the same binder?
The value was -0.274.

And the “glycan array binding signal (z-score)” value [41]?
Its value is -0.162.

What about the “glycan array binding signal (z-score)” value [42] of the same binder?
Its value is -0.233.

What about the “glycan array binding signal (z-score)” value [43] of the same binder?
The value was -0.232.
